# In paper PMC6919601, “Identification of Plasmodium dipeptidyl aminopeptidase allosteric inhibitors by high throughput screening” (PLoS ONE, 2019):
# Out of some 110,000 compounds screened, about 230 (0.21%) showed an effect of 50% or more. The list shows a part of the results.
# Molecular target: DPAP1 (Plasmodium falciparum, UniProt Q8IIJ9)
# Assay: primary screen, percent inhibition; read by cleavage of a fluorogenic dipeptide substrate; higher = more effect of the substance
# Set-up: species or system P. falciparum D10 trophozoite lysates; single well
# 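Note: 30 min substrate incubation versus DMSO and 10 µM JCP410 controls.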
# DPAP1, sequence (Q8IIJ9 whole entry, looked up): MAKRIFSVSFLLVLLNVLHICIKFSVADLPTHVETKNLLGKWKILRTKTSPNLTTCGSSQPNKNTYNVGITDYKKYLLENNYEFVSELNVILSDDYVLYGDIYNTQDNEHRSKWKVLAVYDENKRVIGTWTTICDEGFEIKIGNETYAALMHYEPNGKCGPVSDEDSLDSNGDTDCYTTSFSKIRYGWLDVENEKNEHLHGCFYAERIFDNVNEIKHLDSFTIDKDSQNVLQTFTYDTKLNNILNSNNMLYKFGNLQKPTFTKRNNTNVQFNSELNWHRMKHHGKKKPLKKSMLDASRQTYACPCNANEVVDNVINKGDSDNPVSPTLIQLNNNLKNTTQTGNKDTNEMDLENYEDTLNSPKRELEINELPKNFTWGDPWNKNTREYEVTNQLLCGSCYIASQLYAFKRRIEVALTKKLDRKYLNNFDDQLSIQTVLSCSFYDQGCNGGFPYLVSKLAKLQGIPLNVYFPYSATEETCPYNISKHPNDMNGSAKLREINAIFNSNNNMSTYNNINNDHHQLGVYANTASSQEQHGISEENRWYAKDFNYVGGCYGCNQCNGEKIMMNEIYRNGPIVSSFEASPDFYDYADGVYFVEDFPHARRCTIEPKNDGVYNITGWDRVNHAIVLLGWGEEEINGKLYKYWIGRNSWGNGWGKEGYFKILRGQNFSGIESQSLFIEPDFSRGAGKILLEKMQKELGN
row,Structure (SMILES),% Inhibition @ 10 uM [%]
1,O=S(=O)(c1ccc(Cl)cc1)N1CCN(C2CCC(c3ccccc3)CC2)CC1 (stereo not drawn),-11.3
2,COc1ccccc1CNC1Cc2ccccc2C1,-0.0908
3,COC(=O)c1cc(-c2ccc(Cl)cc2)[nH]n1,-4.84
4,Clc1ccc(-n2ncc3c(NCCCn4ccnc4)ncnc32)cc1,-1.1
5,Clc1ccccc1OCCn1c(C2CCCO2)nc2ccccc21 (stereo not drawn),-1.22
6,O=c1ccn(Cc2ccccc2)c(=O)n1Cc1ccccc1,-3.09
7,CC1=C(C(=O)Nc2cccnc2)C(c2cccnc2)C2=C(O)CC(C)(C)CC2=N1 (stereo not drawn),-6.18
8,Cc1cc(Br)c2c(c1)C(c1c(C)n(C)n(-c3ccccc3)c1=O)(c1c(C)n(C)n(-c3ccccc3)c1=O)C(=O)N2,3.74
9,Cc1ccc(C2C3=C(Nc4ncnn42)c2ccccc2OC3c2cccs2)cc1 (stereo not drawn),-3.37
10,CN1CCN(C(=O)c2ccccc2)C(c2ccccc2)C1 (stereo not drawn),-9.28
11,COC(=O)c1cc2sc(Cl)cc2n1CC(=O)N(C)C1CCCCC1,-12.5
12,CNC(=O)C(=O)NCCc1c[nH]c2ccccc12,4.84
13,COc1cc2c(cc1OC)C(c1ccccn1)N(C(C)=O)CC2 (stereo not drawn),4.57
14,COCCCNC(=O)c1ccc(CSc2nc3ccncc3n2Cc2ccc(OC)cc2)cc1,4.53
15,Cc1cc(C)nc(N2C3CCC2CC(O)(c2ccccc2)C3)n1 (stereo not drawn),3.66
16,CS(=O)(=O)N1CCCC(C(=O)NCCC2=CCCCC2)C1 (stereo not drawn),3.79
17,Cc1ccc(/C=C(\C#N)C(N)=O)c(C)c1,0.968
18,CC1CCN(C(=S)NC2CCCCC2)CC1,-8.05
19,COc1ccc(C(CC(=O)NCc2ccccc2)NS(=O)(=O)c2ccc(F)cc2)cc1 (stereo not drawn),-0.406
20,Oc1c(Cc2ccccc2)cnc2ccccc12,3.32
21,CCCCOc1ccc(C2=N/C(=C\OCC)C(=O)O2)cc1,13.1
22,CC(C)(C)c1ccc(C(=O)Nc2ccccc2C(F)(F)F)cc1,-4.08
23,O=C(Nc1cc(Cl)ccc1Cl)C1CCC(N2C(=O)C3C4C=CC(C5CC45)C3C2=O)CC1 (stereo not drawn),-4.91
24,CC1=NOC(=O)/C1=C\c1ccc(-c2ccc(Cl)c(C(=O)O)c2)o1,1.91
25,COc1ccc(/C=C2\C(=O)N(c3cccc(Br)c3)N=C2C)cc1OC,3.98
26,COc1ccc(/C=N/n2cnnc2SC)cc1OC,-1.69

row,Structure (SMILES),% Inhibition @ 10 uM [%]
1,CC(=O)Nc1ccc(NC(=O)c2sc3cc(Cl)ccc3c2Cl)cc1,2.36
2,CCCCN(CC)C(=O)CSc1nc2nnc(C)c-2c(N)n1-c1ccc(Br)cc1,1.2
3,COc1ccc(CN2CCN(Cc3ccc(OC)c(OC)c3)CC2)cc1,-17.7
4,COCCCNC(=O)CN1C(=O)C(c2ccccc2)Oc2cccnc21 (stereo not drawn),0.436
5,CCCCCNC(=O)CSc1nc2ccccc2[nH]1,-3.78
6,COCCNC(=O)c1c(C)c(-c2ccc(C)cc2)nc2ccccc12,-1.42
7,NC(=O)C1CCCN(Cc2ccccc2F)C1 (stereo not drawn),-0.446
8,O=C(/C=C/c1ccccc1F)c1ccc(Cl)cc1,-1.03
9,Clc1ccc(CCNC2CCN(Cc3ccccc3)CC2)cc1,-2.18
10,CC(=O)c1c(NC(C)C)cc(C)oc1=O,-0.969
11,CS(=O)(=O)C1=NSC2=NC(=O)/C(=C\c3cn(Cc4ccccc4F)c4ccccc34)C(=N)N21,0.163
12,O=C(NC1CCN(Cc2ccccc2)CC1)c1nnc(Cc2c(F)cccc2Cl)o1,2.5
13,COCCCNC(=O)C1CCN(C(=O)c2oc3cc4sc(N(C)C)nc4cc3c2C)CC1,-3.08
14,CCOC(=O)/C=C(\C)N1N=C2c3ccc(OC)cc3CCC2C1c1ccc(F)cc1 (stereo not drawn),-1.77
15,COc1cc(CNCc2c(C(=O)O)c(C)n(Cc3ccccc3C)c2C)cc(OC)c1OC,-3.67
16,c1ccc(N2CCN(Cc3ccc4ccccc4c3)CC2)cc1,0.847
17,COc1nc(NC(C)C)nc(NC(C)C)n1,-4.91
18,NC(=O)c1sc2nc(-c3ccc4c(c3)OCCO4)cc(C(F)(F)F)c2c1N,33.5
19,COc1cc(C(=O)N(CCCN(C)C)c2nc3ccc(F)cc3s2)cc(OC)c1OC,-1.07
20,COc1cccc(C2C3=C(O)CC(C)(C)CC3=NC(C)=C2C(=O)Nc2cccc(C)n2)c1OC (stereo not drawn),2.26
21,Cn1ncc(Br)c1C(=O)NC12CC3CC(CC(C3)C1)C2,3.56
22,CCS(=O)(=O)N1CCC2(CC1)OC(=O)C(C)=C2C(=O)NCCCc1ccccc1,-2.31
23,CCN(CC)S(=O)(=O)c1ccc(C(C)=O)cc1,3.71
24,COc1ccc2[nH]c(C)c(CCNCc3ccc4ccccc4n3)c2c1,-2.5
25,CC(C)(C)c1csc(NC(=O)COc2ccccc2Cl)n1,4.12
26,COc1cccc(-c2[nH]nc3c2C(c2ccc(Br)cc2)C(C#N)=C(N)O3)c1 (stereo not drawn),0.726

row,Structure (SMILES),% Inhibition @ 10 uM [%]
1,C/C(=N\[C@@H](CC1CCCCC1)C(=O)NC1(C#N)CC1)NS(=O)(=O)c1ccccc1,-1.7
2,COc1ccc(/C=C2\N=C(c3ccc(C)cc3)OC2=O)c(OC)c1,1.47
3,Cc1nc2c(c(C)c1CCC(=O)NCCCN1CCCC1=O)c(=O)n(C)c(=O)n2C,-1.3
4,O=C(NCc1ccccc1)N[C@@H](Cc1ccc2ccccc2c1)C(=O)N[C@@H](CCc1ccccc1)C(=O)CO,-0.778
5,COc1ccc(C)cc1-n1nc2ccccc2n1,-4.68
6,COc1ccc(CN(C)CCN(C)C)c2ccccc12,1.54
7,COc1ccccc1C(=O)Nc1nn(C)c2nc(C)cc(C)c12,11.9
8,CCOC(=O)C1=C(CN2CCCCC2)NC(=O)NC1c1cc(C)ccc1C (stereo not drawn),1.72
9,COc1cccc(-c2cc(C(=O)NC(C)(C)C)c3ccccc3n2)c1,-2.82
10,CC(C)C[C@H](NC(=O)NC(C)c1cccc2ccccc12)C(=O)NCC#N (stereo partly drawn),1.71
11,CSc1nc(-c2ccc(F)cc2)c(C)cc1C#N,1.03
12,COc1ccc(C(=O)Nc2ccccc2C(=O)Nc2ccccc2)cc1,0.755
13,CCOc1ccc(NC(=O)C2=C(C)NC(=O)NC2c2ccccc2Br)cc1 (stereo not drawn),-6.47
14,O=C(NCC1OCCc2ccccc21)C1OCCc2ccccc21 (stereo not drawn),-0.45
15,CCCOc1ccc(C2C(C#N)=C(N)Oc3[nH]nc(C(C)(C)C)c32)cc1OCC (stereo not drawn),0.746
16,CCOc1ccc(CC(=O)C2C(=O)CC(C)(C)CC2=O)cc1OCC,2.7
17,CCCSc1nc(O)c(C(C)CC)c(O)n1 (stereo not drawn),0.0792
18,CC(=O)c1ccc(NC(=O)COc2ccc(Cl)c(C)c2)cc1,4.96
19,CCC(CC)NCCc1ccc(OC)c(OC)c1,8.16
20,Cc1ccc(N2CCN(C(=O)c3ccccc3NC(=O)CCC(=O)O)CC2)cc1,3.04
21,O=C(Nc1ccccc1C(=O)N1CCCCC1CCO)c1ccc(Cl)cc1Cl (stereo not drawn),11.9
22,CCOc1ccc2nc(N3CCC(C(=O)N4CCC(C(N)=O)CC4)CC3)sc2c1,0.137
23,CCCCCCNC(=O)c1c(OC)cccc1OC,1.35
24,CCN1CCN(Cc2ccc(-c3ccccc3Cl)o2)CC1,-5.31
25,Cc1ccc(-n2nnc3c(=O)n(Cc4ccccc4Cl)cnc32)cc1,-0.431
26,O=c1[nH]ccn(Cc2ccc(Cl)cc2)c1=O,-4.58

row,Structure (SMILES),% Inhibition @ 10 uM [%]
1,Cc1ccccc1C(=O)Nc1ccc(CN2CCOCC2)cc1,3.53
2,CC1CC(=O)C(C(C)C)N(C)C1 (stereo not drawn),0.266
3,CN(CCO)S(=O)(=O)c1ccccc1[N+](=O)[O-],-0.687
4,CCOc1cc(CN2CCC(O)CC2)ccc1OC,-0.127
5,CCC(NC(=O)Nc1ccccc1OC)(C(F)(F)F)C(F)(F)F,2.6
6,CCOC(=O)C1=C(CS(=O)(=O)c2ccc(Cl)cc2)NC(=O)NC1c1ccc(OC)c(OC)c1 (stereo not drawn),-3.94
7,CC1(C)CC(=O)C2=C(C1)OC(N)=C(C#N)C21C(=O)N(CN2CCOCC2)c2ccccc21 (stereo not drawn),1.37
8,CCNc1nc(-c2ccc(C3CCCCC3)cc2)cs1,-3.28
9,C(=C\CSc1nnnn1-c1ccccc1)/CSc1nnnn1-c1ccccc1,-1.06
10,COc1ccccc1-c1c(C)c(CC(C)C)nc(N)c1C#N,0.5
11,O=C1C(S(=O)c2ccc(Cl)cc2)=C(O)c2cccc3cccc1c23 (stereo not drawn),77.5
12,OC1CCCc2c1[nH]c1ccc(C(F)(F)F)cc21 (stereo not drawn),-0.357
13,Cc1ccc(C(=O)CC(=O)c2ccc(Cl)cc2)c(O)c1,-2.41
14,O=C(Cn1c(=O)sc2cccc(Cl)c21)OCCF,0.273
15,CC1CCN(S(=O)(=O)c2ccc3c(ccn3CC(=O)NCc3ccccc3)c2)CC1,4.64
16,CCN1C(=O)/C(=C\c2ccccc2OC)S/C1=N/c1ccccc1,-1.37
17,CCCCCc1ccc(-c2ccc(C(=O)O)cc2)nc1,3.22
18,C=CCn1c(SCC(=O)Nc2ccccc2OC)nc2scc(-c3ccc(C)o3)c2c1=O,-4.76
19,CS(=O)(=O)N(CC(=O)N1CCN(Cc2ccc3c(c2)OCO3)CC1)c1cccc(F)c1,-1.27
20,C=CCNC(=O)NC(=O)C12CC3CC(CC(C3)C1)C2,-2.62
21,CC(NC(=O)c1ccccn1)c1ccccc1 (stereo not drawn),-0.744
22,Cn1c(=O)c2c(n(C)c1=O)=NC1(CCCCC1)N=2,-6.22
23,COc1cc(C2C3=C(O)CCCC3=Nc3nc(-c4ccc(O)cc4)nn32)cc(OC)c1OC (stereo not drawn),3.59
24,O=C1NC(=O)C(=Cc2ccc(SC3CCCCC3)o2)C(=O)N1,0.458
